In the supplement of paper PMC8728848:
This is one part of the list.

What was measured:
Test in all cases: glycan array binding signal (z-score within array); higher = stronger binding
Details in all cases: glycan notation: IUPAC condensed, linker removed
[1] = biological target: Neu5Ac(a2-3)Gal6S(b1-4)[Fuc(a1-3)]GlcNAc
Outline: (§1)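 The binding signal is a Z-score computed within each array and averaged over linkers. Arrays of the same protein sequence at different concentrations or buffers were also averaged together. Data originate from 3228 arrays in the Consortium for Functional Glycomics database, kept only where the protein sequence was available.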

[2] = biological target: Neu5Ac(a2-3)GalNAc
Outline: as §1

[3] = biological target: Neu5Ac(a2-3)GalNAc(b1-4)GlcNAc
Outline: as §1

[4] = biological target: Neu5Ac(a2-3)[GalNAc(b1-4)]Gal(b1-4)Glc
Outline: as §1

[5] = biological target: Neu5Ac(a2-3)[GalNAc(b1-4)]Gal(b1-4)GlcNAc
Outline: as §1

[6] = biological target: Neu5Ac(a2-3)[GalNAc(b1-4)]Gal(b1-4)GlcNAc(b1-3)GalNAc
Outline: as §1

[7] = biological target: Neu5Ac(a2-3)[Neu5Ac(a2-6)]GalNAc
Outline: as §1

[8] = biological target: Neu5Ac(a2-6)Gal
Outline: as §1

[9] = biological target: Neu5Ac(a2-6)Gal(b1-4)Glc
Outline: as §1

[10] = biological target: Neu5Ac(a2-6)Gal(b1-4)GlcNAc
Outline: as §1

[11] = biological target: Neu5Ac(a2-6)Gal(b1-4)GlcNAc(b1-2)Man(a1-3)Man(b1-4)GlcNAc(b1-4)GlcNAc
Outline: as §1

[12] = biological target: Neu5Ac(a2-6)Gal(b1-4)GlcNAc(b1-2)Man(a1-3)[Gal(b1-4)GlcNAc(b1-2)Man(a1-6)]Man(b1-4)GlcNAc(b1-4)GlcNAc
Outline: as §1

[13] = biological target: Neu5Ac(a2-6)Gal(b1-4)GlcNAc(b1-2)Man(a1-3)[GlcNAc(b1-2)Man(a1-6)]Man(b1-4)GlcNAc(b1-4)GlcNAc
Outline: as §1

[14] = biological target: Neu5Ac(a2-6)Gal(b1-4)GlcNAc(b1-2)Man(a1-3)[GlcNAc(b1-2)Man(b1-4)GlcNAc(b1-2)Man(a1-6)]Man(b1-4)GlcNAc(b1-4)GlcNAc
Outline: as §1

[15] = biological target: Neu5Ac(a2-6)Gal(b1-4)GlcNAc(b1-2)Man(a1-3)[Man(a1-6)]Man(b1-4)GlcNAc(b1-4)GlcNAc
Outline: as §1

[16] = biological target: Neu5Ac(a2-6)Gal(b1-4)GlcNAc(b1-2)Man(a1-3)[Neu5Ac(a2-6)Gal(b1-4)GlcNAc(b1-2)Man(a1-6)]Man(b1-4)GlcNAc(b1-4)GlcNAc
Outline: as §1

[17] = biological target: Neu5Ac(a2-6)Gal(b1-4)GlcNAc(b1-2)Man(a1-6)Man(b1-4)GlcNAc(b1-4)GlcNAc
Outline: as §1

[18] = biological target: Neu5Ac(a2-6)Gal(b1-4)GlcNAc(b1-2)Man(a1-6)[Gal(b1-4)GlcNAc(b1-2)Man(a1-3)]Man(b1-4)GlcNAc(b1-4)GlcNAc
Outline: as §1

[19] = biological target: Neu5Ac(a2-6)Gal(b1-4)GlcNAc(b1-2)Man(a1-6)[GlcNAc(b1-2)Man(a1-3)]Man(b1-4)GlcNAc(b1-4)GlcNAc
Outline: as §1

[20] = biological target: Neu5Ac(a2-6)Gal(b1-4)GlcNAc(b1-2)Man(a1-6)[Man(a1-3)]Man(b1-4)GlcNAc(b1-4)GlcNAc
Outline: as §1

[21] = biological target: Neu5Ac(a2-6)Gal(b1-4)GlcNAc(b1-3)Gal(b1-3)GlcNAc
Outline: as §1

[22] = biological target: Neu5Ac(a2-6)Gal(b1-4)GlcNAc(b1-3)Gal(b1-4)GlcNAc
Outline: as §1

[23] = biological target: Neu5Ac(a2-6)Gal(b1-4)GlcNAc(b1-3)Gal(b1-4)GlcNAc(b1-3)Gal(b1-4)GlcNAc
Outline: as §1

[24] = biological target: Neu5Ac(a2-6)Gal(b1-4)GlcNAc(b1-3)Gal(b1-4)[Fuc(a1-3)]GlcNAc(b1-3)Gal(b1-4)[Fuc(a1-3)]GlcNAc
Outline: as §1

[25] = biological target: Neu5Ac(a2-6)Gal(b1-4)GlcNAc(b1-3)GalNAc
Outline: as §1

B1: SAG3 (Toxoplasma gondii), Q9BJ39 (protein)
chain: MQLWRRRAAGPASLGRQSLPLGCFFAAFGLCVLSAILGTGERGLFVAAGNSRRKITYFGTLTQKAPNWYRCSSTRAKEEVVGHVTLNKEHPDMTIECVDDGLGGEFLPLEGARSSYPRVCHIDAKDQDDCERNRGFLTDYIPGAKQYWYKIEKVEQNGEQSVLYKFTVPWILLPPAKQRYKVGCRYPNHEYCFVEVTVEPTPPMVEGKRVTCGYSESGPVNLEVDLSKNANFIEIRCGEQHHPQPSTYTLQYCSGDSVDPQKCSPQSLTNIFYDYSSSWWKGKLNGPDGATLTIPPGGFPEEDKSFLVGCSLTVDGPPFCNVKVRVAGNPRKWERGGGGHPGSGGLQPGTDGETQAGTGSSAGASSRMASVALAFLLGLLVHVAA
glycan array binding signal (z-score) [1]: -0.144 | glycan array binding signal (z-score) [2]: -0.024 | glycan array binding signal (z-score) [3]: -0.469 | glycan array binding signal (z-score) [4]: -0.251 | glycan array binding signal (z-score) [5]: -0.264 | glycan array binding signal (z-score) [6]: -0.464 | glycan array binding signal (z-score) [7]: -0.226 | glycan array binding signal (z-score) [8]: 0.496 | glycan array binding signal (z-score) [9]: -0.33 | glycan array binding signal (z-score) [10]: -0.372 | glycan array binding signal (z-score) [11]: 0.385 | glycan array binding signal (z-score) [12]: -0.052 | glycan array binding signal (z-score) [13]: -0.205 | glycan array binding signal (z-score) [14]: -0.291 | glycan array binding signal (z-score) [15]: -0.12 | glycan array binding signal (z-score) [16]: -0.101 | glycan array binding signal (z-score) [17]: 0.041 | glycan array binding signal (z-score) [18]: -0.419 | glycan array binding signal (z-score) [19]: -0.571 | glycan array binding signal (z-score) [20]: -0.001 | glycan array binding signal (z-score) [21]: -0.03 | glycan array binding signal (z-score) [22]: -0.143 | glycan array binding signal (z-score) [23]: -0.049 | glycan array binding signal (z-score) [24]: -0.312 | glycan array binding signal (z-score) [25]: 0.144
